T1: IL10 receptor (UniProt Q13651 22-578; Q08334 20-325, limits assumed)
T1 sequence (looked up) 1: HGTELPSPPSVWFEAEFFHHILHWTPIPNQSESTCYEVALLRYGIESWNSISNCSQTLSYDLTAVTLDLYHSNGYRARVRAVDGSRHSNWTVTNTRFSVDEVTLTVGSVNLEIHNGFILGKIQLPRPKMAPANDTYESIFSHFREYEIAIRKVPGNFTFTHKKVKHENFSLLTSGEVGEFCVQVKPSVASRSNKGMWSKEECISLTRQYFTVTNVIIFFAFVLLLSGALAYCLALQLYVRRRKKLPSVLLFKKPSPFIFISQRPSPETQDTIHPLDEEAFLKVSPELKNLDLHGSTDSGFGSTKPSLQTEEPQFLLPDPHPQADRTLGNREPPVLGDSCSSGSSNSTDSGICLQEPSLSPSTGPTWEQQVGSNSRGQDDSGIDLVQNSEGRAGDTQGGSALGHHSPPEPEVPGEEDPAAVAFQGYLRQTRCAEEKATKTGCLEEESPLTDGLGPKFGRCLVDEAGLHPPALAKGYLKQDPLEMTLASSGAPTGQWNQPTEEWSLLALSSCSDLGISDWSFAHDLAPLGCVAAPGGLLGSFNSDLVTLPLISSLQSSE
T1 sequence (looked up) 2: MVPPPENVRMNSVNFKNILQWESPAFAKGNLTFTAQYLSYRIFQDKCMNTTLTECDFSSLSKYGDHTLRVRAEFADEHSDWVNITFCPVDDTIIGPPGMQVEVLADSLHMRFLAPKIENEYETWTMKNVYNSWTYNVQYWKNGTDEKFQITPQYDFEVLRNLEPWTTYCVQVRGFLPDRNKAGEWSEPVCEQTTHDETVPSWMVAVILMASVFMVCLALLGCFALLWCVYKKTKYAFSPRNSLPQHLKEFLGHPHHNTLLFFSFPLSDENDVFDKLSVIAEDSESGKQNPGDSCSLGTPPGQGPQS


Legend:
Assay in all cases: cell-based or functional assay
[1] = biological target: T1, IL10 receptor
[2] = biological target: hIL10RA/hIL13Ra1 (human, UniProt Q13651 22-256; P78552 22-367)
[3] = biological target: hIL10RA/hIL13Ra2 (human, UniProt Q13651 22-256; Q14627 27-363)

hIL10RA/hIL13Ra2, sequence (Q14627 27-363): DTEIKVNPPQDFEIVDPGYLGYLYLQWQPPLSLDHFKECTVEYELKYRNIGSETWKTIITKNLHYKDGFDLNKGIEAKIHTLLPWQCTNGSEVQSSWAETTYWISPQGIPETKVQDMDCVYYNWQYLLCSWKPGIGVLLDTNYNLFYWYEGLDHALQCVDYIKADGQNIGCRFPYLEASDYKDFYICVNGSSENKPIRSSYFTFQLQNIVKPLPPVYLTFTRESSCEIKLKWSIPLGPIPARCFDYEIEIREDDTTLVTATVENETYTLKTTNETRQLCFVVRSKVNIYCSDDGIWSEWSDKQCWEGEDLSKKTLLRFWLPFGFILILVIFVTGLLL
hIL10RA/hIL13Ra1, sequence (P78552 22-367): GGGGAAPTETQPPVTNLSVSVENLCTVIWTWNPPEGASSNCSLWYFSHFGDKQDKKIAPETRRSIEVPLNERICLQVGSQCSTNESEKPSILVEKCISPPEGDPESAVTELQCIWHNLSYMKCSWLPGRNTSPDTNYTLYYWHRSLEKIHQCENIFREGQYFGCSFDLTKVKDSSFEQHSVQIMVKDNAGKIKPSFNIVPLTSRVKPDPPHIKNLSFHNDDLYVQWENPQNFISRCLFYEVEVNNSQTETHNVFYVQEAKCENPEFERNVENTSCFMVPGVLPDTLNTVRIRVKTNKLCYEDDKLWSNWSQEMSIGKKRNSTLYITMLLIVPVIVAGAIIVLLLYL

| HEK-Blue IL10 EC50 (STAT-3 mediated SEAP expression) [1] [nM] | Heterologous clustering hIL10RA/hIL13Ra1 EC50 (NanoBiT enzyme complementation) [2] [pM] | Heterologous clustering hIL10RA/hIL13Ra2 EC50 (NanoBiT enzyme complementation) [3] [pM] | Binder |
| --- | --- | --- | --- |
| 0.265 |  |  | IL4-10M Fc (S) (Fc fusion) chain 1: HKCDITLQEIIKTLNSLTEQKTLCTELTVTDIFAASKNTTEKETFCRAATVLRQFYSHHEKDTRCLGATAQQFHRHKQLIRFLKRLDRNLWGLAGLNSCPVKEANQSTLENFLERLKTIMREKYSKCSSGSGGGGSGTCPPCPAPELLGGPSVFLFPPKPKDTLMISRTPEVTCVVVDVSHEDPEVKFNWYVDGVEVHNAKTKPREEQYNSTYRVVSVLTVLHQDWLNGKEYKCKVSNKALPAPIEKTISKAKGQPREPQVCTLPPSRDELTKNQVSLSCAVKGFYPSDIAVEWESNGQPENNYKTTPPVLDSDGSFFLVSKLTVDKSRWQQGNVFSCSVMHEALHNHYTQKSLSLSPGK chain 2: KSKAVEQVKNAFNKLQEKGIYKAMSEFDIFINYIEAYMTMKIRNGSGGGGSGTSPGQGTQSENSCTHFPGNLPNMLRDLRDAFSRVKTFFQMKDQLDNLLLKESLLEDFKGYLGCQALSEMIQFYLEEVMPQAENQDPDIKAHVNSLGENLKTLRLRLRRCHRFLPCENGSGGGGSG[sequence of human IgG1 Fc with changes not given] |
|  | 13900 | 1490 | IL13-10M Fc (J) (Fc fusion) chain 1: [sequence of about 120 residues not given][sequence of about 250 residues not given] chain 2: SPGQGTQSENSCTHFPGNLPNMLRDLRDAFSRVKTFFQMKDQLDNLLLKESLLEDFKGYLGCQALSEMIQFYLEEVMPQAENQDPDIKAHVNSLGENLKTLRLRLRRCHRFLPCENGGGSGGKSKAVEQVKNAFNKLQEKGIYKAMSEFDIFINYIEAYMTMKIRNTGSGGGGSGTCPPCPAPEAAGGPSVFLFPPKPKDTLMISRTPEVTCVVVDVSHEDPEVKFNWYVDGVEVHNAKTKPREEQYNSTYRVVSVLTVLHQDWLNGKEYKCKVSNKALPAPIEKTISKAKGQPREPQVYTLPPSRDELTKNQVSLTCLVKGFYPSDIAVEWESNGQPENNYDTTPPVLDSDGSFFLYSDLTVDKSRWQQGNVFSCSVMHEALHNHYTQKSLSLSPGK |
| 0.0808 |  |  | IL10M-Fc (J) (Fc fusion) SPGQGTQSENSCTHFPGNLPNMLRDLRDAFSRVKTFFQMKDQLDNLLLKESLLEDFKGYLGCQALSEMIQFYLEEVMPQAENQDPDIKAHVNSLGENLKTLRLRLRRCHRFLPCENGGGSGGKSKAVEQVKNAFNKLQEKGIYKAMSEFDIFINYIEAYMTMKIRNGSGGGGSG[sequence of human IgG1 Fc with changes not given] |
| 0.544 |  |  | IL4-10M Fc (J) (Fc fusion) chain 1: HKCDITLQEIIKTLNSLTEQKTLCTELTVTDIFAASKNTTEKETFCRAATVLRQFYSHHEKDTRCLGATAQQFHRHKQLIRFLKRLDRNLWGLAGLNSCPVKEANQSTLENFLERLKTIMREKYSKCSSGSGGGGSGTCPPCPAPELLGGPSVFLFPPKPKDTLMISRTPEVTCVVVDVSHEDPEVKFNWYVDGVEVHNAKTKPREEQYNSTYRVVSVLTVLHQDWLNGKEYKCKVSNKALPAPIEKTISKAKGQPREPQVCTLPPSRDELTKNQVSLSCAVKGFYPSDIAVEWESNGQPENNYKTTPPVLDSDGSFFLVSKLTVDKSRWQQGNVFSCSVMHEALHNHYTQKSLSLSPGK chain 2: SPGQGTQSENSCTHFPGNLPNMLRDLRDAFSRVKTFFQMKDQLDNLLLKESLLEDFKGYLGCQALSEMIQFYLEEVMPQAENQDPDIKAHVNSLGENLKTLRLRLRRCHRFLPCENGGGSGGKSKAVEQVKNAFNKLQEKGIYKAMSEFDIFINYIEAYMTMKIRNGSGGGGSG[sequence of human IgG1 Fc with changes not given] |

Reference: US20260132178A1 (SYNERKINE PHARMA B V, published 2026)
